# Source: publication PMC4336329 (PLoS ONE, 2015)
# Out of some 310,000 compounds screened, about 2,200 (0.71%) showed an effect of 50% or more. Effects have a minus sign here. The list shows a part of the results.
# Biological target: human ether-à-go-go-related gene (hERG) potassium channel (human, UniProt Q12809)
# Assay: primary screen, population patch clamp on CHO cells stably expressing hERG
# human ether-à-go-go-related gene (hERG) potassium channel, sequence (Q12809 whole entry, looked up): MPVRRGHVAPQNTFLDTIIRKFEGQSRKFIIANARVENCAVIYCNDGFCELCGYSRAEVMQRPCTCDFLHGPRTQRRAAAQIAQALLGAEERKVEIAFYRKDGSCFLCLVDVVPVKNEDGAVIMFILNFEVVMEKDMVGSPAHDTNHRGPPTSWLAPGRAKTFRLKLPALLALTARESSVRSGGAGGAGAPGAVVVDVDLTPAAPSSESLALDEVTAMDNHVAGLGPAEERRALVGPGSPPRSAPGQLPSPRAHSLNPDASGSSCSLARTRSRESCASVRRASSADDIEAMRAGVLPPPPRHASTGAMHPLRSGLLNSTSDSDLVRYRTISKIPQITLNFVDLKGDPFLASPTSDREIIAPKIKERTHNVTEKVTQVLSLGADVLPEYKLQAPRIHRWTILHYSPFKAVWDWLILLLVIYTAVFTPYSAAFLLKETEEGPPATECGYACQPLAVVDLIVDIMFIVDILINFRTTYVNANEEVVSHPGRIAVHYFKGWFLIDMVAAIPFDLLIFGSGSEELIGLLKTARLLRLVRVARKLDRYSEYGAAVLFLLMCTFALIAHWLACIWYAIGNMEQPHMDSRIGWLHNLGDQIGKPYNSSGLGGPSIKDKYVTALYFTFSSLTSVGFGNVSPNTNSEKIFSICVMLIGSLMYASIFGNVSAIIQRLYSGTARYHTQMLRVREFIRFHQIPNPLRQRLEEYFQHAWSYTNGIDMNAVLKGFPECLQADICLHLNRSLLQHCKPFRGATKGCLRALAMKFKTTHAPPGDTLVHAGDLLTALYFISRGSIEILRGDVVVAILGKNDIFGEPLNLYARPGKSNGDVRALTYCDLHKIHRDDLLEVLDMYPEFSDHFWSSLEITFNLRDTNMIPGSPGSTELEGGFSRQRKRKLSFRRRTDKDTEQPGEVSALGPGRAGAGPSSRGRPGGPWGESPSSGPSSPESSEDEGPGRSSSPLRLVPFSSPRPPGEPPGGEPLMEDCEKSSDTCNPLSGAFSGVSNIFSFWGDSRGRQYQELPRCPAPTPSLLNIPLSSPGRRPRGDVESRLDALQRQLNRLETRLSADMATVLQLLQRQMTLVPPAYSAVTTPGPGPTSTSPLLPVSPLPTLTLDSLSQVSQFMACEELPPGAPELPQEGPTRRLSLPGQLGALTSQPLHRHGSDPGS
row,Structure (SMILES),"hERG current change (%, negative = inhibition) at 1uM"
1,COc1cccc(/C=N/NC(=O)c2cnn(-c3ccccc3)c2N)c1,3.81%
2,COc1ccc(S(=O)(=O)N[C@H](C(=O)O)C(C)C)cc1,7.2%
3,O=[N+]([O-])c1ccc2c(c1)ncn2CCc1ccccc1,9.78%
4,CCN(CC)CC(O)COc1ccc2c(c1)c(C(C)=O)c(C)n2-c1ccccc1 (stereo not drawn),1.64%
5,O=C(O)Cc1ccc(N=Cc2c(O)ccc3ccccc23)cc1,0.154%
6,CCOc1ccccc1/C=N/NC(=O)c1nnn(-c2nonc2N)c1CN1CCCCCC1,14.6%
7,CC(/C=N/NC(=O)c1nn(C)c(C)c1Br)=C\c1ccccc1,-1.19%
8,Cc1ccc(N2C(=O)C3C4CC(=O)C(c5ccccc54)C3C2=O)cc1 (stereo not drawn),4.46%
9,COC(=O)/C=C/c1cnc2ccccc2c1,24.1%
10,COc1ccc(N(CC(=O)N2CCc3ccccc32)S(=O)(=O)c2c(C)noc2C)cc1,5.61%
11,Cc1nnc(NC(=O)CSc2n[nH]c(-c3ccccc3)n2)s1,11.7%
12,O=C(c1ccc(Cl)c(S(=O)(=O)N2CCOCC2)c1)N(Cc1nnc(-c2ccccc2Cl)o1)C1CC1,9.47%
13,CCC(C)OC(=O)C1C(c2ccccc2)C(C(=O)O)C1c1ccccc1 (stereo not drawn),8.25%
14,O=C(CCN1CCN(CCO)CC1)Nc1ccc(Br)cc1,4.71%
15,Cl.c1coc(CNCC2OCCc3ccccc32)c1 (stereo not drawn),-0.6%
16,CCn1c(SCC(=O)c2ccc(CNC(C)=O)o2)nnc1-c1cccs1,6.31%
17,Cc1ccc2c(COC(=O)c3n[nH]c4ccccc34)cc(=O)oc2c1,6.95%
18,Cc1cc(C=O)c(C)n1-c1cccc(C(=O)O)c1,13.8%
19,Cc1sc(NC(=O)Nc2ccccc2)c(C(N)=O)c1C,11.6%
20,Cc1ccc(C)c(CN2C(=O)C3CCCN3c3ccc(C#N)cc32)c1 (stereo not drawn),-0.327%
21,COc1ccc(C2=NOC(COC(=O)c3ccc4ccccc4n3)C2)cc1 (stereo not drawn),21.8%
22,NC(=O)C1CCN(C(=O)C(=O)c2cn(CC(=O)N3CCCCCC3)c3ccccc23)CC1,16%
23,C=C1C(C(=O)Nc2ccc(OCC)cc2)C1C(=O)Nc1ccc(OCC)cc1 (stereo not drawn),9.21%
24,Cc1ccc(S(=O)(=O)CCC(=O)OCC(=O)Nc2cc(S(=O)(=O)N3CCOCC3)ccc2C)cc1,4.04%
